Data as given in PubChem BioAssay AID1745853 (National Center for Advancing Translational Sciences (NCATS), 2022).
Where “and” joins values, the source holds several entries; their conditions need not be identical. Equal values may be shown once. The list shows a part of the results. The main result of the screen is listed elsewhere. These columns were measured beside it and carry no call.

Tests used:
Assay in all cases: Primary Screen for Target Class Profiling of Small Molecule Inhibitors of Methyltransferases
[1] = biological target: Glycine N-methyltransferase (Homo sapiens) (UniProt Q14749); conditions: purified enzyme, MTase-Glo SAH luminescence; measured here: GNMT inhibition; at 40 µM; stronger effect = lower value
Summary of the method: (§1)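 Each enzyme was reacted with SAM and its substrate, with compounds tested once at 40 uM; SAH formed was read by MTase-Glo luminescence.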

[2] = biological target: Guanidinoacetate N-methyltransferase (Homo sapiens) (UniProt Q14353); conditions: purified enzyme, MTase-Glo SAH luminescence; measured here: GAMT inhibition; at 40 µM; stronger effect = lower value
Summary of the method: as §1

[3] = biological target: Histamine N-methyltransferase (Homo sapiens) (UniProt P50135); conditions: purified enzyme, MTase-Glo SAH luminescence; measured here: HNMT inhibition; at 40 µM; stronger effect = lower value
Summary of the method: as §1

[4] = biological target: Nicotinamide N-methyltransferase (Homo sapiens) (UniProt P40261); conditions: purified enzyme, MTase-Glo SAH luminescence; measured here: NNMT inhibition; at 40 µM; stronger effect = lower value
Summary of the method: as §1

[5] = biological target: Phenylethanolamine N-methyltransferase (Homo sapiens) (UniProt P11086); conditions: purified enzyme, MTase-Glo SAH luminescence; measured here: PNMT inhibition; at 40 µM; stronger effect = lower value
Summary of the method: as §1
% is set by controls: 0 for no effect and ±100 for the full control effect.

Row | Structure (SMILES) | activity change, negative = inhibition [1] [%] | activity change, negative = inhibition [2] | activity change, negative = inhibition [3] [%] | activity change, negative = inhibition [4] | activity change, negative = inhibition [5]
1 | CC(Cc1ccncc1)Nc1nccc(-c2cnn(-c3ccccc3)c2)n1 (stereo unspecified) | -33.7 | -9.9% | -21.1 | -20.9% | -4.36%
2 | O=C(Nc1ccc(N2C(=O)[C@@H]3[C@H](C2=O)[C@@H]2C=C[C@H]3C2)c(Cl)c1)c1ccccn1 | -8.83 | 0.766% | -6.03 | -21.6% | -15.9%
3 | CC(C)CCn1c(=O)c2ccc(C(=O)NCC(C)C)cc2n2c(=O)n(Cc3ccccc3Cl)nc12 | 6.64 | 0% | 6.62 | -0.024% | 3.68%
4 | CCCC(=O)NCCc1csc(-c2ccc(Cl)cc2)n1 | -11.9 | -5.64% | 4.42 | -20.7% | -10.1%
5 | COC(=O)c1ncn2c1C(=O)N(CCC1=CCCCC1)C(C)(C(=O)NC1CCCCCC1)C2 (stereo unspecified) | 1.28 | 5.52% | -1.33 | 0.635% | 2%
6 | O=C(Nc1ccccc1)N1CCN(c2nc(-c3ccccc3)ns2)CC1 | -3.22 | 1.7% | 11.1 | -15.6% | -1.73%
7 | COc1ccccc1CNC(=O)C1(C)Cn2nc(-c3ccccc3)cc2C(=O)N1c1ccc2c(c1)OCO2 (stereo unspecified) | 2.77 | 2.73% | 6.76 | -3.45% | 0.704%
8 | CC(C)CCn1c(=O)c2ccccc2n2c(CCC(=O)N3CCN(c4ccccc4F)CC3)nnc12 | -13.2 | 4.25% | -10.1 | -41% | -9.22%
9 | COC(=O)c1ncn2c1C(=O)N(CCCOC(C)C)C(C)(C(=O)NC1CCCCCC1)C2 (stereo unspecified) | 8.59 | 0% | 6.26 | 8.05% | 4.93%
10 | CCC(C)NC(=O)c1ccc2c(=O)n(C)c3nnc(SCC(=O)NC(C)C)n3c2c1 (stereo unspecified) | 3.04 | -4.92% | 7.55 | -0.739% | -4.63%
11 | Cn1nc(C(C)(C)C)cc1C(=O)N[C@@H](Cc1cccc(Cl)c1)C(=O)NCC#N | 6.76 | 8.46% and 3.93% | 9.18 | -5.21% and -12.9% | 5.18% and -0.158%
12 | CCC(C)NC(=O)c1ccc2c(=O)n(C)c3nnc(SCc4ccccc4C)n3c2c1 (stereo unspecified) | 6.88 | 4.03% | 6.3 | 4% | 4.04%
13 | CC(C)Cc1ccc(S(=O)(=O)NCCn2c(CCc3ccccc3)nc3ccccc32)cc1 | -2.47 | 0.007% | -6.89 | -6.85% | -1.97%
14 | CC(=O)Nc1ccc(Nc2nc3c(S(=O)(=O)c4cc(C)ccc4C)nnn3c3ccccc23)cc1 | -3.81 | 3.6% | -2.09 | 11.5% | -1.35%
15 | O=C(O)c1cccc(C(=O)CCC2OC(n3cnc4c(=O)[nH]cnc43)C(O)C2O)c1 (stereo unspecified) | -0.964 | 2.97% | 2.55 | -7.72% | 4.66%
16 | CC1CCCCC1NC(=O)C1(C)Cn2c(nc3ccccc32)C(=O)N1CCc1ccccc1 (stereo unspecified) | 3.47 | 0% | 6.28 | 2.91% | 1.25%
17 | O=C(O)c1cnc(-c2ccccc2)nc1-c1ccncc1 | -3.58 | -4.52% | -1.74 | -1.42% | -4.01%
18 | CC(=O)Nc1c2n(c3ccc(F)cc13)CC(C)(C(=O)NC1CCCC1)N(Cc1ccc(F)cc1)C2=O (stereo unspecified) | -5.38 | 4.79% | -1.34 | -3.03% | -4.06%
19 | Cc1cc(C(=O)N2CC(N(C(=O)NC(C)C)C3CCOCC3)C2)nn1C | -0.226 | 1.45% | 1.69 | -1.07% | -11.6%

Row | Structure (SMILES) | activity change, negative = inhibition [1] [%] | activity change, negative = inhibition [2] | activity change, negative = inhibition [3] [%] | activity change, negative = inhibition [4] | activity change, negative = inhibition [5]
20 | O=C(COc1ccccc1)N1CCOC[C@H](Oc2ccccc2)C1 | -5.42 | -3.9% | -2.59 | -12.4% | 5.5%
21 | CCCn1c(=O)c2ccc(C(=O)NC3CCCCC3)cc2n2c(SCC(=O)NC(C)(C)C)nnc12 | 8.49 | 3.54% | 6.43 | 5.56% | 9.39%
22 | Cc1ccc(CN2C(=O)c3ccc(-c4ccccc4)n3CC2(C)C(=O)NC2CCC(C)CC2)cc1 (stereo unspecified) | 6.29 | 0.888% | 5.46 | -1.23% | 1.93%
23 | O=C(O[C@H]1[C@@H]2C=CO[C@@H](O[C@@H]3O[C@H](CO)[C@@H](O)[C@H](O)[C@H]3O)[C@@H]2[C@@]2(CO)O[C@@H]12)c1ccc(O)c(O)c1 | 3.58 | 4.65% | 10.6 | -7.05% | 2.6%
24 | CCOC(=O)N1CCN(C(=O)Cn2sc3nc(C)cc(C)c3c2=O)CC1 | – | -7.16% | – | -8.9% | 3.51%
25 | CCC(C)(O)C(O)C(=O)OCc1ccc(O[C@@H]2O[C@H](CO)[C@@H](O)[C@H](O)[C@H]2O)cc1 (stereo partly specified) | 0 | 4.15% | 4.64 | -7.06% | 6.74%
26 | O=C1NC2(CCCN(Cc3ccccc3C(F)(F)F)C2)COc2ccccc21 (stereo unspecified) | -8.39 | -9.03% | -5.82 | -12.3% | -5.01%
27 | c1ccc(-c2nc(-c3ccc(OC4CNC4)cc3)no2)cc1 | -19.5 | -9.9% | -36.4 | -19% | -17%
28 | Nc1cc(C(F)(F)F)c(-c2cc(N3CCOCC3)nc(N3CCOCC3)n2)cn1 | -8.73 | -9.28% | -0.584 | -20.6% | -6.07%
29 | CC(=O)O[C@@H]1[C@H](O)[C@@H](O[C@@H]2O[C@@H](C)[C@H](O[C@@H]3OC[C@@H](O)[C@H](O[C@@H]4OC[C@@H](O)[C@H](O)[C@H]4O)[C@H]3O)[C@@H](O[C@@H]3O[C@H](CO)[C@@H](O)[C@H](O)[C@H]3O)[C@H]2O)[C@H](OC(=O)[C@]23CCC(C)(C)C[C@H]2C2=CCC4[C@@]5(C)CC[C@H](O[C@@H]6O[C@H](C(=O)O)[C@@H](O)[C@H](O[C@@H]7OC[C@@H](O)[C@H](O)[C@H]7O)[C@H]6O[C@@H]6O[C@H](CO)[C@H](O)[C@H](O)[C@H]6O)[C@@](C)(C=O)C5CC[C@@]4(C)[C@]2(C)CC3)O[C@@H]1C (stereo partly specified) | 0 | 20% | 12.8 | 9.69% | 11.4%
30 | CCOC(=O)c1cc2n(n1)CC(C)(C(=O)NC1CCCC1)N(c1ccc(C)c(Cl)c1)C2=O (stereo unspecified) | -0.375 | 2.75% | 0.065 | -1.77% | -1.72%
31 | COc1cccc(-c2cc(C(=O)N3CCC(Cn4cccn4)CC3)[nH]n2)c1 | -12.7 | -8.97% | -5.87 | -24.8% | -22.3%
32 | COC(=O)c1cc2n(n1)CC(C)(C(=O)NC1CCCCC1)N(Cc1ccc(C)cc1)C2=O (stereo unspecified) | -3.4 | 4.92% | 4.58 | -1.02% | 1.51%
33 | COCCCOc1ccnc(CS(=O)c2nc3ccccc3[nH]2)c1C (stereo unspecified) | 2.55 | 5.57% | -5.76 | -11.9% | -1.9%
34 | Cc1cc(Cl)ccc1N1C(=O)CSc2c(c3ccccc3n2C)C1C(=O)NCc1ccccc1 (stereo unspecified) | 12.6 | 0.414% | 6.54 | 4.47% | 7.24%
35 | Cc1cccc(N2C(=O)N(Cc3ccc(C(C)(C)C)cc3)c3ccccc3S2(=O)=O)c1 | – | -35.4% | – | -37.5% | -5.22%
36 | CC(C)Cn1c(=O)c2ccc(C(=O)NC(C)C)cc2n2c(SCC(=O)NC3CCCC3)nnc12 | -3.45 | -9.62% | 3.77 | -6.3% | -3.52%
37 | Cc1c(C(=O)Nc2ccc(N3C[C@@H](C)O[C@@H](C)C3)nc2)cccc1-c1ccc(OC(F)(F)F)cc1 | 7.21 | 0.116% and -7.9% | 8.57 | -11.8% and -26.2% | 3.36% and -5.54%
38 | COc1ccc(-c2ccc(C(=O)NCc3cccc(Cl)c3)cc2)nn1 | -8.82 | -9.91% | -7.23 | -18.8% | -29.5%

Row | Structure (SMILES) | activity change, negative = inhibition [1] [%] | activity change, negative = inhibition [2] | activity change, negative = inhibition [3] [%] | activity change, negative = inhibition [4] | activity change, negative = inhibition [5]
39 | COc1cc(C(C)=O)ccc1O[C@@H]1O[C@H](CO[C@@H]2O[C@@H](C)[C@H](O)[C@@H](O)[C@H]2O)[C@@H](O)[C@H](O)[C@H]1O | 0 | 6.27% | 10.1 | -4.8% | 3.94%
40 | Cc1ccc(Sc2cncc3sc(C(N)=O)cc23)cc1 | -6.23 | 5.7% | 10.6 | -18.8% | 3.02%
41 | CCNC(=O)Nc1ccc(-c2nc3c(c(N4CCOC[C@@H]4C)n2)CCN(c2ncccn2)C3)cc1 | -13.8 | 11% | 4.73 | -20.1% | -1.94%
42 | COc1ccc(-c2nnc(-c3ccc(Cl)c(S(=O)(=O)N4CCCCC4)c3)o2)cc1OC | -0.663 | 0.414% | 0.951 | 1.31% | 0.827%
43 | COc1ccc2c(c1)c(NC(C)=O)c1n2CC(C)(C(=O)NC2CCCCCC2)N(C2CCCC2)C1=O (stereo unspecified) | 5.03 | 0% | 8.49 | -1.08% | 1.59%
44 | CNC1=C(c2ccc(F)cc2)C(=O)N(Cc2ccccc2)C1 | -6.18 | -7.74% | -8.93 | -12.7% | -6.24%
45 | CCNC(=O)[C@@H]1C[C@H](NC(=O)CCc2ccccc2)CN1Cc1cnc[nH]1 | -1.67 | -5.22% | 0.434 | 1.79% | -1.55%
46 | CC[C@@]1(O)CCN(C(=O)c2cccc(CCC(C)(C)O)c2)C[C@H]1O | 1.64 | 0.148% | 1.76 | -0.79% | -12.5%
47 | CCn1ncnc1C(C)NC(=O)Cn1nc(-c2ccccc2)n(CC)c1=O (stereo unspecified) | -3.43 | -7.24% | -0.218 | -14.2% | -9.33%
48 | CC(C)NNC(=O)c1ccncc1 | 8.66 | 8.15% | 11.1 | -7.66% | -4.39%
49 | COc1ccc(C#Cc2ccc(C(=O)N3CCC[C@@H](CO)C3)cc2)cc1 | -2.24 | -0.64% | 1.02 | -14.5% | -11%
50 | O=C(CCc1nnn2c1CN(C(=O)c1cccc3[nH]ccc13)CC2)N1CCCC1 | -14.8 | -4.79% | -1.7 | -7.98% | -48.5%
51 | COCCC(=O)N1CCCN(C(=O)C2CC2)c2ccccc21 | -6.81 | -2.26% | -2.43 | -4.1% | 0.565%
52 | CC1(C(=O)NC2CCCCCC2)Cn2c(ccc2-c2ccccc2)C(=O)N1Cc1cccs1 (stereo unspecified) | 5.26 | 1.32% | -1.5 | -9.61% | -1.87%
53 | CCOC(=O)c1cc2n(n1)CC(C)(C(=O)NCc1ccc(C)cc1)N(c1cc(Cl)ccc1C)C2=O (stereo unspecified) | 6.28 | 1.59% | 6.05 | 5.42% | 7.72%
54 | O=C(CCc1nnc2n(Cc3ccc(F)cc3)c(=O)c3ccccc3n12)Nc1ccc(F)c(F)c1 | -1.48 | 3.54% | 6.17 | -19% | -1.4%
55 | Nc1nc(CCC(=O)N[C@@H]2COCC[C@H]2Oc2ccc(CO)cc2)cs1 | -2.56 | 0.905% | 3.42 | -4.83% | -2.48%
56 | CC1CCN(S(=O)(=O)c2ccc3c(ccn3CC(=O)NCC(C)c3ccccc3)c2)CC1 (stereo unspecified) | -0.188 | 2.64% | -5.46 | -5.51% | -3.33%
